A number of entries come with more than one value. This list holds those alone. An entry can have further records. For part of these data: The values listed for one entry read as repeated measurements (runs, samples, wells or individuals). For part of these data: Values that stand side by side seem to repeat one measurement; a mean can stand among them.
What was measured:
Test in all cases: peptide or protein array; SH2/PTB proteins spotted on aldehyde slides, rhodamine peptide titrated in buffer B (20 mM HEPES, 100 mM KCl, 0.1% Tween-20, 5 mM DTT, pH 7.8), 1 h at room temperature; replicate assays
[1] = target: ABL2 SH2 domain (human) (UniProt P42684)
Chain of UniProt P42684 (P42684 173-263): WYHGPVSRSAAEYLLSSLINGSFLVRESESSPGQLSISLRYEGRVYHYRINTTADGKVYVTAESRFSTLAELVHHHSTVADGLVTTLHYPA

[2] = target: PLCG2 tandem SH2 domains (human)
[3] = target: LCK SH2 domain (human) (UniProt P06239)
Chain of UniProt P06239 (P06239 127-224): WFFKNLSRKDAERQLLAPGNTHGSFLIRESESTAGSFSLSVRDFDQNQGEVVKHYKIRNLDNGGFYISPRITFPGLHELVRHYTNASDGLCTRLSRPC

[4] = target: ITK SH2 domain (human) (UniProt Q08881)
Chain of UniProt Q08881 (Q08881 239-338): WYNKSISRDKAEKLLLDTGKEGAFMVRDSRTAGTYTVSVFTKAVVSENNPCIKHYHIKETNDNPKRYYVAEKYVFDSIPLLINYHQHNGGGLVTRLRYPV

[5] = target: PIK3R3 tandem SH2 domains (human)
[6] = target: ZAP70 C-terminal SH2 domain (human) (UniProt P43403)
Chain of UniProt P43403 (P43403 whole entry, the tested form may be a part): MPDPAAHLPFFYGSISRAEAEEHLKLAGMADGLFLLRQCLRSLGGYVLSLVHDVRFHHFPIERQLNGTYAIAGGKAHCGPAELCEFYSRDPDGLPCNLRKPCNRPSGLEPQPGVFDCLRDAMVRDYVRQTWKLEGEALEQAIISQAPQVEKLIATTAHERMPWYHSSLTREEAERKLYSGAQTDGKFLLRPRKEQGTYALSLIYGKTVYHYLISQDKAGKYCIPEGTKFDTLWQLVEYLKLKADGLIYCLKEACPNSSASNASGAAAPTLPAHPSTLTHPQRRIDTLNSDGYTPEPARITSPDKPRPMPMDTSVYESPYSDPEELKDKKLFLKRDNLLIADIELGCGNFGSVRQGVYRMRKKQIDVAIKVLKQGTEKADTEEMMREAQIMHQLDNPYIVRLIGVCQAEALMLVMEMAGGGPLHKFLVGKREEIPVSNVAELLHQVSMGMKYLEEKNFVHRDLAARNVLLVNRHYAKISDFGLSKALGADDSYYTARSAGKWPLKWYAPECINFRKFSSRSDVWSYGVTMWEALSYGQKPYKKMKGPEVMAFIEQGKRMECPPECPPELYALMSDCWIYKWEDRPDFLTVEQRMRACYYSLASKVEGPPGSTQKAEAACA

[7] = target: SH2D1B SH2 domain (human) (UniProt O14796)
Chain of UniProt O14796 (O14796 5-101): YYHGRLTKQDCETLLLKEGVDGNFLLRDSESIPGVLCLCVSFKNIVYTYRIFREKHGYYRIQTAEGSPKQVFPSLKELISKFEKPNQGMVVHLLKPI

[8] = target: SRC SH2 domain (human) (UniProt P12931)
[9] = target: TNS3 SH2 domain (human) (UniProt Q68CZ2)
Chain of UniProt Q68CZ2 (Q68CZ2 1172-1282): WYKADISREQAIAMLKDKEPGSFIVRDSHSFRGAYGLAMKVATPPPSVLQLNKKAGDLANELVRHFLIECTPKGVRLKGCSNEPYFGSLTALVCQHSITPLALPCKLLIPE

[10] = target: TEC SH2 domain (human) (UniProt P42680)
Chain of UniProt P42680 (P42680 247-345): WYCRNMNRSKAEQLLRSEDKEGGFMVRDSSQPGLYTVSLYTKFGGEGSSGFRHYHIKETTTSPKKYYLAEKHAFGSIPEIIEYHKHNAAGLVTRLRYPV

[11] = target: SH3BP2 SH2 domain (human) (UniProt P78314)
Chain of UniProt P78314 (P78314 457-555): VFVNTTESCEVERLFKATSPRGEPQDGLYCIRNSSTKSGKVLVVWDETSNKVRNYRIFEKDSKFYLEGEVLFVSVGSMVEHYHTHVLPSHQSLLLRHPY

[12] = target: BLK SH2 domain (human) (UniProt P51451)
Chain of UniProt P51451 (P51451 124-220): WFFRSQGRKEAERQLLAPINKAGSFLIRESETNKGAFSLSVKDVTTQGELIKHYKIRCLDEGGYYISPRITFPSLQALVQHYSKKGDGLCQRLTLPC

[13] = target: YES1 SH2 domain (human) (UniProt P07947)
Chain of UniProt P07947 (P07947 158-255): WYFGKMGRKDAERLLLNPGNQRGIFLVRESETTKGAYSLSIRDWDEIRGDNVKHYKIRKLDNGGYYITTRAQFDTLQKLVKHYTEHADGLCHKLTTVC

[14] = target: SH2D1A SH2 domain (human) (UniProt O60880)
Chain of UniProt O60880 (O60880 6-104): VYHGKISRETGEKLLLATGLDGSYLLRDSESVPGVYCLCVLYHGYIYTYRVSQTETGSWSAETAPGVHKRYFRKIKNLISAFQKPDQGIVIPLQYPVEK

Substance: ErbB4 pY1301 phosphopeptide (18-mer), rhodamine-labelled, for protein microarrays
- Kd [1]: 1.03 µM and 0.68 nM [lines of one column]
- Kd [2]: 815 nM and 8.37 µM [lines of one column]

Substance: ErbB2 pY735 phosphopeptide, rhodamine-labelled, for protein microarrays
- Kd [3]: 731 nM and 11.9 µM [lines of one column]
- Kd [4]: 2.03 µM and 29.4 µM [lines of one column]
- Kd [5]: 0.805 nM and 1.01 µM [lines of one column]
- Kd [6]: 812 nM and 20 µM [lines of one column]
- Kd [7]: 1.17 µM and 44.8 nM [lines of one column]

Substance: ErbB4 pY733 phosphopeptide (18-mer), rhodamine-labelled, for protein microarrays
- Kd [8]: 12.2 µM, 4.2 µM, 1.21 µM [lines of one column]
- Kd [9]: 54.1 µM and 794 nM [lines of one column]
- Kd [10]: 23 µM, 2.14 µM, 1.62 µM [lines of one column]
- Kd [2]: 801 nM, 10.3 µM, 2.26 µM [lines of one column]
- Kd [11]: 50.1 µM, 12.8 µM, 802 nM [lines of one column]
- Kd [4]: 9.63 µM, 1.61 µM, 814 nM [lines of one column]
- Kd [12]: 1.75 µM, 7.18 µM, 401 nM [lines of one column]

Substance: ErbB4 pY1202 phosphopeptide (18-mer), rhodamine-labelled, for protein microarrays
- Kd [11]: 1.61 µM, 15.9 µM, 495 nM, 2.06 µM [lines of one column]
- Kd [12]: 2.29 µM, 2.39 µM, 447 nM, 7.84 µM [lines of one column]
- Kd [13]: 1.61 µM, 417 nM, 350 nM, 1.44 µM [lines of one column]

Substance: ErbB3 pY789 phosphopeptide, rhodamine-labelled, for protein microarrays
- Kd [2]: 801 nM, 388 nM, 80 nM [lines of one column]
- Kd [14]: 220 nM, 2.68 µM, 678 nM [lines of one column]
- Kd [11]: 588 nM, 50 nM, 2.46 µM [lines of one column]
- Kd [5]: 380 nM, 6.77 µM, 64.5 nM [lines of one column]
- Kd [12]: 2.25 µM, 1.3 µM, 30 nM [lines of one column]
- Kd [13]: 1.44 µM, 518 nM, 60 nM [lines of one column]
- Kd [7]: 1.83 µM, 1.6 µM, 70 nM [lines of one column]

From article PMC3433420
